Paper PMC7341970
No constants are given. Whether binding was seen depends on the method and setting. Binding seen in cells or lysates may run through a third protein. Some binding calls cover weakened binding; strength is not graded here. For some assays here: Tags and fused reporters may be left off the sequences shown. Values belong to the molecule of their own block, whether it stands above or below them.

By UniProt entry, the sequences of proteins in these tests, tags left out.
UniProt Q6PDQ2: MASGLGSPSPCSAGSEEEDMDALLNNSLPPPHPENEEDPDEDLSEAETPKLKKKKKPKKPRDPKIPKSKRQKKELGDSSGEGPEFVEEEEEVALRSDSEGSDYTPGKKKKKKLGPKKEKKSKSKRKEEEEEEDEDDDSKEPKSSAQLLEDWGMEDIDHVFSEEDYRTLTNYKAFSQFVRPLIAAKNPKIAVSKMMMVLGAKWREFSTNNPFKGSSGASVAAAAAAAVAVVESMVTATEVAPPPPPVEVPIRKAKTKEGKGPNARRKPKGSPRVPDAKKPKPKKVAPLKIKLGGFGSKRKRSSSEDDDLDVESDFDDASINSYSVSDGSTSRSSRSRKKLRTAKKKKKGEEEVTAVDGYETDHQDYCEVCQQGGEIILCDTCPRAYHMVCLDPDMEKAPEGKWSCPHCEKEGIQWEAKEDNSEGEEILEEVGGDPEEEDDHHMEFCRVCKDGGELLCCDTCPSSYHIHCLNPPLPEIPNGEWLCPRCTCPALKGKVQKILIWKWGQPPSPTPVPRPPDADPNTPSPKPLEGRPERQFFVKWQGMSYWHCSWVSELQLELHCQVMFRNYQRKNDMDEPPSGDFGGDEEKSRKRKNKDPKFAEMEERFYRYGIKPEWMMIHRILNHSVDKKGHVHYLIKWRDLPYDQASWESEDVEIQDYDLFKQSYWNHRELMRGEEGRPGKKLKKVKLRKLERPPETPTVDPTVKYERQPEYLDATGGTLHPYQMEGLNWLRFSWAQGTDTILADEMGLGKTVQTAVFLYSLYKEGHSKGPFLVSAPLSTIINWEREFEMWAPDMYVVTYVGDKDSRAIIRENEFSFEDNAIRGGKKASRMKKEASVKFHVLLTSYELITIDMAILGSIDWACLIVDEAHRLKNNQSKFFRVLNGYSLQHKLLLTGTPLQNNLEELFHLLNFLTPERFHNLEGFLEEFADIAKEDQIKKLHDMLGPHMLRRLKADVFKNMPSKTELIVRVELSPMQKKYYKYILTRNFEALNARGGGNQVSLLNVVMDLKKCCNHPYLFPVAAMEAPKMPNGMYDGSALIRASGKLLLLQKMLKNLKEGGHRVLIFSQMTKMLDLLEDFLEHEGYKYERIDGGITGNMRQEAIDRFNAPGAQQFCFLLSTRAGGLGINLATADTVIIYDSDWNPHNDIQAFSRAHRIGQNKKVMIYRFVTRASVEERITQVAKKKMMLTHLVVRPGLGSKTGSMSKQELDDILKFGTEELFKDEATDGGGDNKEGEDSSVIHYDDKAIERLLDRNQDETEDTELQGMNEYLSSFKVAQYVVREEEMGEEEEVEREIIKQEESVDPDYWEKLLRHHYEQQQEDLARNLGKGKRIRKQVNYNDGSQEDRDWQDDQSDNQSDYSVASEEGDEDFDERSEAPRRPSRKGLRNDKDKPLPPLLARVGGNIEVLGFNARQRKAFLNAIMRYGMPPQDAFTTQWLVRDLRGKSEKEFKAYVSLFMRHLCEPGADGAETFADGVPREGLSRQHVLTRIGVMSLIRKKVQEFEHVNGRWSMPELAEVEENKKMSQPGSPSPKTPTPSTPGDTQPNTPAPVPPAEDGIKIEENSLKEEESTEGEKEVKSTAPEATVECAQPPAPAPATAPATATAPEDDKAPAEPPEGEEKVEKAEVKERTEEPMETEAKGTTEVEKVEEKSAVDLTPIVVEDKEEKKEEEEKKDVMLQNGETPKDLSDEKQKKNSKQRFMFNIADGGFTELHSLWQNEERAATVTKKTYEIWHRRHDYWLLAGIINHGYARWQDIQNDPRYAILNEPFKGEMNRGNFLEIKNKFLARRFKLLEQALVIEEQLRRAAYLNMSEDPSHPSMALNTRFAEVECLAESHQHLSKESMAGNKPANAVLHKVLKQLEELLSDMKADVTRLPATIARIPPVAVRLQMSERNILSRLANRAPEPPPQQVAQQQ
UniProt Q3TKT4: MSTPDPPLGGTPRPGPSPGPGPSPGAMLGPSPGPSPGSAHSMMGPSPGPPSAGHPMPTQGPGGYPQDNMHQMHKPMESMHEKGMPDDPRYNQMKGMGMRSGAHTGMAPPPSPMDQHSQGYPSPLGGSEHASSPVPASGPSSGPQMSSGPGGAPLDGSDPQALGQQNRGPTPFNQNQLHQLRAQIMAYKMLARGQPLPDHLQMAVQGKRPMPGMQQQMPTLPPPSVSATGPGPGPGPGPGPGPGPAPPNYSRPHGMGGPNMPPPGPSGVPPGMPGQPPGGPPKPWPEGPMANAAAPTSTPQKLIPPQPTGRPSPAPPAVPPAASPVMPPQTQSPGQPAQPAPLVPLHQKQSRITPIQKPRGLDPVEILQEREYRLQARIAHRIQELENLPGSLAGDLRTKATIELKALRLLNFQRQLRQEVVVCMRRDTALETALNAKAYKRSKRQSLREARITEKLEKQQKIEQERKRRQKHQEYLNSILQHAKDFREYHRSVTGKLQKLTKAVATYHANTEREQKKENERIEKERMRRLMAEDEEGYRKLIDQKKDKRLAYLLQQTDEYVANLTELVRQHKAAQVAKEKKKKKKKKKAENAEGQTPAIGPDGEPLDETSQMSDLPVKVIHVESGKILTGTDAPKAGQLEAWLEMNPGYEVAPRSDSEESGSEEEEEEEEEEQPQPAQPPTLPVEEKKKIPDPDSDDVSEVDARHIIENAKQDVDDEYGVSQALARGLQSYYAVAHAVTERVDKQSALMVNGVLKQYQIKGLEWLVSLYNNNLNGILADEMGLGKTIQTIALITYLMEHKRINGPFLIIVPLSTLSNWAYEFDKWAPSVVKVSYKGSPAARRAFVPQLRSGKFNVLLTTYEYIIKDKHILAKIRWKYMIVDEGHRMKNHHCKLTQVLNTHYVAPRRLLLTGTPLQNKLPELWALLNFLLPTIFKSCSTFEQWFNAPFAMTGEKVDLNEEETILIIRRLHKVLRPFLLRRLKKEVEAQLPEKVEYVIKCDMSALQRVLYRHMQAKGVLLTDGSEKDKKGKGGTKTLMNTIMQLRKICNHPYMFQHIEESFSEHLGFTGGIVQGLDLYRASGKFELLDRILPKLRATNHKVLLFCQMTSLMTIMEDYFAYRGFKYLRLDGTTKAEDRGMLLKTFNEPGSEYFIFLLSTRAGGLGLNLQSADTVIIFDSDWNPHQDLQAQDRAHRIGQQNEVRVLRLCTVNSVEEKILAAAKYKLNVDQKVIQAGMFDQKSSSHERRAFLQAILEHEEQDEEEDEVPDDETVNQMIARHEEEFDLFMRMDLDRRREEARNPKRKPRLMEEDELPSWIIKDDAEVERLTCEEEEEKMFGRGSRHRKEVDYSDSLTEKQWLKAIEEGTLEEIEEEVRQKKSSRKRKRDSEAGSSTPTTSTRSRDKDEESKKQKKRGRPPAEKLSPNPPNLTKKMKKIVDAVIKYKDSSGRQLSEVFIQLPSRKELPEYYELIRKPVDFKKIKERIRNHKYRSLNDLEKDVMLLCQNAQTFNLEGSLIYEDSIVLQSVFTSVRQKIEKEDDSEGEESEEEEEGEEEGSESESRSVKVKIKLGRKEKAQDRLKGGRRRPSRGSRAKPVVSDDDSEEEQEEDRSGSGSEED
UniProt A2BH40: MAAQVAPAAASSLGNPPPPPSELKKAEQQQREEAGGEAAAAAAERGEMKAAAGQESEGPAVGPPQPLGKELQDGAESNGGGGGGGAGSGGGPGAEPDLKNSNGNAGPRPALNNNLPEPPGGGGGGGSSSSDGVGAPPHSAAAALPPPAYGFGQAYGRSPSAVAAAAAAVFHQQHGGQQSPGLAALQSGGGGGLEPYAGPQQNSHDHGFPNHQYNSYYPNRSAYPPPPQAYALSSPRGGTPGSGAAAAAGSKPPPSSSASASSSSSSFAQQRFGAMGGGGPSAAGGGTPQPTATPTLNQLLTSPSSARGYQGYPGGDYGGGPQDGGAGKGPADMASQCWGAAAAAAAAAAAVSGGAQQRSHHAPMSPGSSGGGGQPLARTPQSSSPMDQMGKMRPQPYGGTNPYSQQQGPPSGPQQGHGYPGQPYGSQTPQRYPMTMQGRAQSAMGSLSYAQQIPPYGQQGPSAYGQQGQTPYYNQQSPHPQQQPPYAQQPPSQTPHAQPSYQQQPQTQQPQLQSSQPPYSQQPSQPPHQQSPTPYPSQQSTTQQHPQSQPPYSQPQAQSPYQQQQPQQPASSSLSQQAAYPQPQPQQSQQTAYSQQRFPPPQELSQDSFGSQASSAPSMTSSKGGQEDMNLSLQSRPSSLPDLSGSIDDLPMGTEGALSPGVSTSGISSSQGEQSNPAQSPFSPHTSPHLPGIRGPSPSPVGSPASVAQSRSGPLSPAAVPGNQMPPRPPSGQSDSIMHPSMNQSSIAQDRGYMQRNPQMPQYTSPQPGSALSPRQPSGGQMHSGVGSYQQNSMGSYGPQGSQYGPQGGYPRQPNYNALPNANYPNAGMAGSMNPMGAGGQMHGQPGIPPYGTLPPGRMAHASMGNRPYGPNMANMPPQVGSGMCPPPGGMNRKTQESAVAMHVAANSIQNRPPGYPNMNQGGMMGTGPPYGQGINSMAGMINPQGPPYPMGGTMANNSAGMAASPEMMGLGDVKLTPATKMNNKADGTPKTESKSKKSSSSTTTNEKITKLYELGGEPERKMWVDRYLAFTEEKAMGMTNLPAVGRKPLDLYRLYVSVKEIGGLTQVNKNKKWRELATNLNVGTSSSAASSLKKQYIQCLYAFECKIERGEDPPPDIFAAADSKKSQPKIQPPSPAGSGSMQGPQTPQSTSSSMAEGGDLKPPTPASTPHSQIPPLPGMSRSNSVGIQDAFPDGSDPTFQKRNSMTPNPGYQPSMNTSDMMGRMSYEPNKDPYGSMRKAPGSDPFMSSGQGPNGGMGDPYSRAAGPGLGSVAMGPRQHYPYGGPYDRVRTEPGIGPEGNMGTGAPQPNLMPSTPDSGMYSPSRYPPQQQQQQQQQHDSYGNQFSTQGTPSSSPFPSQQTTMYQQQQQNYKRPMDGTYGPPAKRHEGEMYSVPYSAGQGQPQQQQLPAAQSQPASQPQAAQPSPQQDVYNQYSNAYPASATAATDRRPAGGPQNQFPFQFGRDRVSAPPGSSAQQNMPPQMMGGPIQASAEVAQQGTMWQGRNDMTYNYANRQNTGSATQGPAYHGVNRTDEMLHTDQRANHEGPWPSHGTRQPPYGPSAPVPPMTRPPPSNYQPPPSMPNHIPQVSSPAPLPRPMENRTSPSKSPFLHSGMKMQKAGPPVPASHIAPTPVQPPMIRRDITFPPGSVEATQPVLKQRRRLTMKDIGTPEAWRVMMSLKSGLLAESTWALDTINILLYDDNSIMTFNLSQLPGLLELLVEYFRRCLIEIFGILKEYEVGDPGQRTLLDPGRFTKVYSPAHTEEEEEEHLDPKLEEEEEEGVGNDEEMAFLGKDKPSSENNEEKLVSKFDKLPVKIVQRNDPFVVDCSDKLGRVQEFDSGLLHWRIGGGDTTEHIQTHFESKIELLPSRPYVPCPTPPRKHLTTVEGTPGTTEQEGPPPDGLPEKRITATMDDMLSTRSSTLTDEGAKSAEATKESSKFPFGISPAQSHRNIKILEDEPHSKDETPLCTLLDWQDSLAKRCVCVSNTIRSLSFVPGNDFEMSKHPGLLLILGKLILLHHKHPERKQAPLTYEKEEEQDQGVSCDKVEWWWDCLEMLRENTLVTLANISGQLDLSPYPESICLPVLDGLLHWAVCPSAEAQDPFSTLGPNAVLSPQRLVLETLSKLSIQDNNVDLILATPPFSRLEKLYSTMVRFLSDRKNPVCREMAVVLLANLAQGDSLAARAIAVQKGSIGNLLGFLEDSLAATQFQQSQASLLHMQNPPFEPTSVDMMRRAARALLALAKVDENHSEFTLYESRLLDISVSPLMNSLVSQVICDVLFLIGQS

Experiments:
[1] = biological target: T1, 3 × FLAG-tagged ADNP (full length), induced in Adnp-/- mESCs (mouse) (UniProt Q9Z103); assay: co-IP; first round of sequential IP: anti-FLAG Dynabeads on lysate of 3 × FLAG-ADNP Adnp-/- mESCs (10 μM MG132 for 3 h), overnight at 4°C
T1 sequence: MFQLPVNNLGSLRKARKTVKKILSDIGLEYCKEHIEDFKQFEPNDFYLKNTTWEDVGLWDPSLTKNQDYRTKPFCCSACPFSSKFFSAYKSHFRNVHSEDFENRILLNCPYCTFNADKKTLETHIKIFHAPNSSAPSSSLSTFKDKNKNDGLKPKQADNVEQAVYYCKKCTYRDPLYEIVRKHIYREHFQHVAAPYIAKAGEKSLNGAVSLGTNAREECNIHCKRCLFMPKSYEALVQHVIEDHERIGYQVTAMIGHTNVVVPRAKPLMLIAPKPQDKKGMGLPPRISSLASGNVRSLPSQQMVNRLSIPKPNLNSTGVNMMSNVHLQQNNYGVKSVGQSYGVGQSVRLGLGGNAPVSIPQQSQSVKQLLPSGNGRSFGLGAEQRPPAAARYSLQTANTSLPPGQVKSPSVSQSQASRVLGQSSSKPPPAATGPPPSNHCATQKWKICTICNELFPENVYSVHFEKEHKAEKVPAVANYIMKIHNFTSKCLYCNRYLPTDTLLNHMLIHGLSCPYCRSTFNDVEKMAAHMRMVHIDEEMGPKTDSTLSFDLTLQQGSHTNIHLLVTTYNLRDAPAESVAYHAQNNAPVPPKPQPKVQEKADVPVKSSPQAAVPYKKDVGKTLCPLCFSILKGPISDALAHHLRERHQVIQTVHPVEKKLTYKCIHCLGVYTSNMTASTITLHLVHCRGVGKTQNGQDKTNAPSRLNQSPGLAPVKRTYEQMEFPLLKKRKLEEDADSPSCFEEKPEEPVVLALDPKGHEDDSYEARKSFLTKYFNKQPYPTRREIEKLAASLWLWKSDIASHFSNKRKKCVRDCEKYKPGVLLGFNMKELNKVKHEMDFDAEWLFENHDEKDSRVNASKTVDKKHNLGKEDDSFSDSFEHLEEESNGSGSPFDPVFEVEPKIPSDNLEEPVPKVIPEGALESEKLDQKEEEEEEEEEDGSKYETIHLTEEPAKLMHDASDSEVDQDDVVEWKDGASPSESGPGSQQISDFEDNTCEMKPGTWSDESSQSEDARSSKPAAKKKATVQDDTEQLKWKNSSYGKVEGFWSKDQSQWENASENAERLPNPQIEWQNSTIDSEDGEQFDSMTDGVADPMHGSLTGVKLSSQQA

[2] = biological target: CHD4, endogenous (mouse (endogenous in mESCs)) (UniProt Q6PDQ2); assay: co-IP; second round of sequential IP: complexes eluted from anti-FLAG beads with 3 × FLAG peptide, re-precipitated with CHD4 antibody, Western blot
[3] = biological target: BRG1, endogenous (mouse (endogenous in mESCs)) (UniProt Q3TKT4); assay: co-IP; endogenous proteins in mESCs; whole cell lysate on antibody-coupled Dynabeads Protein G overnight at 4°C, Western blot
[4] = biological target: BAF250a, endogenous (mouse (endogenous in mESCs)) (UniProt A2BH40); assay: as above

B1: 3 × FLAG-tagged ADNP (full length), induced in Adnp-/- mESCs (protein, UniProt Q9Z103 1-1108)
chain: T1 sequence
binding [2]: binds

B2: Activity Dependent Neuroprotective Protein (ADNP), endogenous (protein, UniProt Q9Z103 1-1108)
chain: T1 sequence
binding [3]: binds | binding [4]: no binding

Now from value to molecule:

binding [1]: binds
Molecule: BRG1, endogenous (from UniProt Q3TKT4 1-1613)

binding [1]: binds
Molecule: CHD4, endogenous (from UniProt Q6PDQ2 1-1915)
